# Experimental data as given in PubChem BioAssay AID1347165 (National Center for Advancing Translational Sciences (NCATS), 2019).
# Among all 220,000 compounds or so, about 5,700 (2.6%) were called active. The inconclusive results got no clear call from the source; some entries with a clear call stand among them for comparison. The call rests on the fitted dose curve; in most records, active means well fitted inhibition curve with a large enough effect; inconclusive means small, poorly fitted or top-dose-only effect; inactive means no such curve, though single readings can be large or run the other way. Where the call is inconclusive, the potency comes from a doubtful curve fit.
# Target: Lysine-specific demethylase 5B (Homo sapiens) (UniProt Q9UGL1)
# Chain of UniProt Q9UGL1 (Q9UGL1 whole entry, looked up): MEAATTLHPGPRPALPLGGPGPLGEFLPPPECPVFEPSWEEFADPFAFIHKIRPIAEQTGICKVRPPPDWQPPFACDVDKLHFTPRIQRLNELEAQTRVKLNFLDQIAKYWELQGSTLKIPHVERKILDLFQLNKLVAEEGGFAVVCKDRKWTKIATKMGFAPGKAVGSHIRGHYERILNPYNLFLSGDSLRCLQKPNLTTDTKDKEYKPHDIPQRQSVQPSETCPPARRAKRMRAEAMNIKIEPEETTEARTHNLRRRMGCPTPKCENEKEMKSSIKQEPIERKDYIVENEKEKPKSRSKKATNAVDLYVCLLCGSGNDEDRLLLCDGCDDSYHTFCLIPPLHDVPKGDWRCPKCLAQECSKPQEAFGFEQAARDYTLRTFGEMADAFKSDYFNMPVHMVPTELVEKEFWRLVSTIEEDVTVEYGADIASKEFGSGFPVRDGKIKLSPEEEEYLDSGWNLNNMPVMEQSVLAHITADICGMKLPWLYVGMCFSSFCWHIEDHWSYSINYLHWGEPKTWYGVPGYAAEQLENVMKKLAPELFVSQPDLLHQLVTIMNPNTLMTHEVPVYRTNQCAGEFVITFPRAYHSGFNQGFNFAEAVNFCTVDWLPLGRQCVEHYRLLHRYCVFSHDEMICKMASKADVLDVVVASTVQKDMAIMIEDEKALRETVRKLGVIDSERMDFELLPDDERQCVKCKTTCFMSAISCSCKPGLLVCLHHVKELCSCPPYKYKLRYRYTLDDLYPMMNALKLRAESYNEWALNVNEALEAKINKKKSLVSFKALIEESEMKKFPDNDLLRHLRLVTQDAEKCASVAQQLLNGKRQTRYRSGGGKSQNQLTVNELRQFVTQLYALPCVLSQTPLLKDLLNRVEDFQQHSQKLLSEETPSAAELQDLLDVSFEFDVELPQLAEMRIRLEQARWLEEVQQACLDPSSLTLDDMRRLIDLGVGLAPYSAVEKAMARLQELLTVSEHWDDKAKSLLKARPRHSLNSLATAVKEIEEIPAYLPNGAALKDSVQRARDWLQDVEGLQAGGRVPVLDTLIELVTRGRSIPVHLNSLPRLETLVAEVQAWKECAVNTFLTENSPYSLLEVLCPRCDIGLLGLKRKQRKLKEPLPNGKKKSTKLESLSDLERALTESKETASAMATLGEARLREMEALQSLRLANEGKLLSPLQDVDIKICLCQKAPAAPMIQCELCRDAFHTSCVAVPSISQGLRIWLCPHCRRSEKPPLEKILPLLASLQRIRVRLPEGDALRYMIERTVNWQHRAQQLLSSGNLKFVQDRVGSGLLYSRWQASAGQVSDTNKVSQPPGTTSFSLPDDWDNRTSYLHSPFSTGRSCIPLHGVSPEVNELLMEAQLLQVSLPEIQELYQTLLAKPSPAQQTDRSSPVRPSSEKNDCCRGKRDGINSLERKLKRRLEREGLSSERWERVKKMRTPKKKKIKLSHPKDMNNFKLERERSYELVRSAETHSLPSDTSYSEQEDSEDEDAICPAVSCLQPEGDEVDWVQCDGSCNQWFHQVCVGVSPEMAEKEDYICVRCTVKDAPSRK
# Assay: Primary screen for KDM5B Histone Demethylases FDH-coupled qHTS; further: nearly all actives have a fitted effect of over 70% in size
# Details: FDH-coupled NADH fluorescence (FDH is formaldehyde dehydrogenase); series mostly up to 57.7 µM
# How it was run: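 qHTS format, multiple compound concentrations. Buffer 50 mM HEPES pH 7.5/0.01% Tween-20; 200 nM KDM5BΔAP final; 10 min compound preincubation; substrate-mix levels 12.5 µM peptide, 25 µM α-KG, 0.25 mM NAD⁺; 30 min RT; ΔRFU.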
# Potency means the concentration at half of the fitted maximal effect; tags describe the fitted curve by direction and shape.
row,Structure (SMILES),Potency
1,O=C(Nc1ccncn1)[C@@H]1C[C@@H](c2ccc(F)cc2)N(CCOc2ccccc2)C1,active: 35.5 µM
2,COc1ccc(-c2ccnc(-c3nnc(C)n3CCN(C)C)c2)cc1OC,active: 28.2 µM
3,CC(C)N1C(=O)C(NC(=O)C(=O)NCCc2c[nH]c3ccc(Cl)cc23)c2ccccc21 (stereo not given),inactive
4,CN(C)CCNC(=O)c1ccc(-c2ccc(N3CCCCCC3)nc2)cc1,active: 25.1 µM
5,O=c1oc2cc(OC/C(=N\O)c3ccccc3)ccc2c2c1CCC2,"inconclusive: 35.5 µM [inhibitor, partial curve, poor fit]"
6,COCCN1CC2(CCCN(c3cc(C)c4ccccc4n3)C2)CCC1=O (stereo not given),active: 28.2 µM
7,CCOCCC(=O)N1CCC2(CC1)CC(c1ccccc1)C(=O)N2C (stereo not given),inactive
8,COc1ccccc1C(=O)N1CCCC2(C1)Nc1cccnc1NC2=NCc1ccccc1 (stereo not given),active: 28.2 µM
9,CC(C)C(=O)/C(C#N)=C\c1ccc(C#N)cc1,"inconclusive: 39.8 µM [inhibitor, single point]"
10,NNc1cc(Cl)ccc1[N+](=O)[O-],"inconclusive: 20 µM [inhibitor, partial curve, poor fit]"
11,Cc1nn(C)cc1CN1CCC(O)(c2ccccc2)[C@H](N2CCCC2)C1 (stereo not given in full),"inconclusive: 3.98 µM [inhibitor, full curve]"
12,C/C(=N\OC(=O)c1cc(-c2ccc(C)c(C)c2)nc2ccccc12)C(C)(C)C,inactive
13,C=CCCC(CN1CCCC1)Oc1ccc(C(=O)N2CCOCC2)cn1 (stereo not given),"inconclusive: 14.1 µM [inhibitor, partial curve, poor fit]"
14,Cc1cc(C)c(/C=N/NC(=O)c2csc3ccccc23)c(C)c1,inactive
15,CC(C)c1ccc(NC(=O)c2cccn2-c2nnc(N3CCCCC3)s2)cc1,"inconclusive: 17.8 µM [inhibitor, partial curve, poor fit]"
16,Cc1ccccc1S(=O)(=O)N1CCCC(CCC(=O)Nc2cccc(Cl)c2)C1 (stereo not given),"inconclusive: 15.8 µM [inhibitor, partial curve, poor fit]"
17,Cc1ccc2c(C(=O)N3CCN(C4CCCCC4)CC3)cc(NC(=O)C(C)C)cc2n1,active: 11.2 µM
18,CC(C)(C)c1cc(CN(CCO)Cc2cc(C(C)(C)C)c(O)c(C(C)(C)C)c2)cc(C(C)(C)C)c1O,"inconclusive: 22.4 µM [inhibitor, single point]"
19,N#Cc1ccc(C(=O)/C=C/c2cc3ccccc3nc2N2CCOCC2)cc1,inactive
20,COc1ccc(C(=O)Nc2ccc3c(c2)CN(Cc2ccccc2Cl)C(=O)C(C)O3)cc1OC (stereo not given),"inconclusive: 28.2 µM [inhibitor, single point]"
